# According to the supplement of paper PMC8728848:
# The other results are listed elsewhere or left out.
# B1: RegIIIalpha (Mus musculus), O09037 (protein)
# chain: MLPHLVLNSISWMLLSCLLFVFQVQGEDFQKEVPSPRTSCPMGYKAYRSHCYALVMTPKSWFQADLVCQKRPSGHLVSILSGGEASFVSSLVNGRVDNYQDIWIGLHDPTMGQQPNGGGWEWSNSDVLNYLNWDGDPSSTVNRGHCGSLTASSGFLKWGDYYCDGTLPFVCKFKQ
# Columns and labels:
# Test in all cases: glycan array binding signal (z-score within array); higher = stronger binding
# Settings in all cases: glycan notation: IUPAC condensed, linker removed
# [1] = biological target: Gal(a1-3)Gal(b1-4)[Fuc(a1-3)]GlcNAc
# In short: (§1)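 Arrays were curated from the Consortium for Functional Glycomics database, 3228 in total, and kept only where the protein sequence was available. Binding is expressed as a within-array Z-score. This score was averaged across arrays of the same protein sequence at different concentrations or buffers and across linkers, and negative values can be read as non-binding.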
# Gal(a1-3)GalNAc = biological target: Gal(a1-3)GalNAc
# In short: as §1
# [2] = biological target: Gal(a1-3)[Gal(a1-4)]Gal(b1-4)GlcNAc
# In short: as §1
# Gal(a1-4)Gal(b1-4)Glc = biological target: Gal(a1-4)Gal(b1-4)Glc
# In short: as §1
# Gal(a1-4)Gal(b1-4)GlcNAc = biological target: Gal(a1-4)Gal(b1-4)GlcNAc
# In short: as §1
# Gal(a1-4)GlcNAc = biological target: Gal(a1-4)GlcNAc
# In short: as §1
# Gal(a1-6)Glc = biological target: Gal(a1-6)Glc
# In short: as §1
# Gal(b1-2)Gal = biological target: Gal(b1-2)Gal
# In short: as §1
# Gal(b1-3)Gal = biological target: Gal(b1-3)Gal
# In short: as §1
# Gal(b1-3)GalNAc = biological target: Gal(b1-3)GalNAc
# In short: as §1
# [3] = biological target: Gal(b1-3)GalNAc(b1-4)Gal(b1-4)Glc
# In short: as §1
# [4] = biological target: Gal(b1-3)GalNAc(b1-4)[Neu5Ac(a2-3)]Gal(b1-4)Glc
# In short: as §1
# Gal(b1-3)GlcNAc = biological target: Gal(b1-3)GlcNAc
# In short: as §1
# [5] = biological target: Gal(b1-3)GlcNAc(b1-3)Gal(b1-4)Glc
# In short: as §1
# [6] = biological target: Gal(b1-3)[Fuc(a1-4)]GlcNAc
# In short: as §1
# [7] = biological target: Gal(b1-3)[GlcNAc(b1-6)]GalNAc
# In short: as §1
# [8] = biological target: Gal(b1-3)[Neu5Ac(a2-6)]GalNAc
# In short: as §1
# [9] = biological target: Gal(b1-3)[Neu5Ac(a2-6)]GlcNAc(b1-4)Gal(b1-4)Glc
# In short: as §1
# [10] = biological target: Gal(b1-3)[Neu5Ac(b2-6)]GalNAc
# In short: as §1
# [11] = biological target: Gal(b1-4)GalNAc(a1-3)[Fuc(a1-2)]Gal(b1-4)GlcNAc
# In short: as §1
# Gal(b1-4)Glc = biological target: Gal(b1-4)Glc
# In short: as §1
# Gal(b1-4)Glc6S = biological target: Gal(b1-4)Glc6S
# In short: as §1
# Gal(b1-4)GlcNAc = biological target: Gal(b1-4)GlcNAc
# In short: as §1
# [12] = biological target: Gal(b1-4)GlcNAc(b1-3)Gal(b1-4)Glc
# In short: as §1
# [13] = biological target: Gal(b1-4)GlcNAc(b1-3)Gal(b1-4)GlcNAc
# In short: as §1
# [14] = biological target: Gal(b1-4)GlcNAc(b1-3)Gal(b1-4)GlcNAc(b1-3)Gal(b1-4)GlcNAc
# In short: as §1
# [15] = biological target: Gal(b1-4)GlcNAc(b1-3)Gal(b1-4)[Fuc(a1-3)]GlcNAc(b1-3)Gal(b1-4)[Fuc(a1-3)]GlcNAc
# In short: as §1
# [16] = biological target: Gal(b1-4)GlcNAc(b1-3)GalNAc
# In short: as §1
# [17] = biological target: Gal(b1-4)GlcNAc(b1-3)[Gal(b1-4)GlcNAc(b1-6)]GalNAc
# In short: as §1
# [18] = biological target: Gal(b1-4)GlcNAc(b1-6)GalNAc
# In short: as §1
# [19] = biological target: Gal(b1-4)GlcNAc(b1-6)[Gal(b1-3)]GalNAc
# In short: as §1
# Gal3S(b1-3)GalNAc = biological target: Gal3S(b1-3)GalNAc
# In short: as §1
# Gal3S(b1-3)GlcNAc = biological target: Gal3S(b1-3)GlcNAc
# In short: as §1
# [20] = biological target: Gal3S(b1-3)[Fuc(a1-4)]GlcNAc
# In short: as §1
# Gal3S(b1-4)Glc = biological target: Gal3S(b1-4)Glc
# In short: as §1
# Gal3S(b1-4)Glc6S = biological target: Gal3S(b1-4)Glc6S
# In short: as §1
# Gal3S(b1-4)GlcNAc = biological target: Gal3S(b1-4)GlcNAc
# In short: as §1
# Gal4S(b1-4)GlcNAc = biological target: Gal4S(b1-4)GlcNAc
# In short: as §1
# Gal6S(b1-4)Glc = biological target: Gal6S(b1-4)Glc
# In short: as §1
# Gal6S(b1-4)Glc6S = biological target: Gal6S(b1-4)Glc6S
# In short: as §1
# GalNAc(a1-3)Gal = biological target: GalNAc(a1-3)Gal
# In short: as §1
# GalNAc(a1-3)GalNAc = biological target: GalNAc(a1-3)GalNAc
# In short: as §1
# GalNAc(b1-3)GalNAc = biological target: GalNAc(b1-3)GalNAc
# In short: as §1
# GalNAc(b1-4)GlcNAc = biological target: GalNAc(b1-4)GlcNAc
# In short: as §1
# Glc(a1-4)Glc = biological target: Glc(a1-4)Glc
# In short: as §1
# Glc(b1-4)Glc = biological target: Glc(b1-4)Glc
# In short: as §1
# Glc(b1-6)Glc = biological target: Glc(b1-6)Glc
# In short: as §1
# [21] = biological target: GlcNAc(b1-2)Gal(b1-3)GalNAc
# In short: as §1
# GlcNAc(b1-3)Gal = biological target: GlcNAc(b1-3)Gal
# In short: as §1
# [22] = biological target: GlcNAc(b1-3)Gal(b1-3)GalNAc
# In short: as §1
# GlcNAc(b1-3)Gal(b1-4)Glc = biological target: GlcNAc(b1-3)Gal(b1-4)Glc
# In short: as §1
# [23] = biological target: GlcNAc(b1-3)Gal(b1-4)GlcNAc
# In short: as §1
# [24] = biological target: GlcNAc(b1-3)[GlcNAc(b1-6)]GalNAc
# In short: as §1
# [25] = biological target: GlcNAc(b1-3)[GlcNAc(b1-6)]GlcNAc(b1-4)GlcNAc
# In short: as §1
# [26] = biological target: GlcNAc(b1-4)GlcNAc(b1-4)GlcNAc
# In short: as §1
# [27] = biological target: GlcNAc(b1-4)[GlcNAc(b1-6)]GalNAc
# In short: as §1
# GlcNAc(b1-6)GalNAc = biological target: GlcNAc(b1-6)GalNAc
# In short: as §1
binder,measurement,setting,value
B1,glycan array binding signal (z-score),[1],-0.095
same,glycan array binding signal (z-score),Gal(a1-3)GalNAc,-0.096
same,glycan array binding signal (z-score),[2],0.002
same,glycan array binding signal (z-score),Gal(a1-4)Gal(b1-4)Glc,-0.066
same,glycan array binding signal (z-score),Gal(a1-4)Gal(b1-4)GlcNAc,-0.094
same,glycan array binding signal (z-score),Gal(a1-4)GlcNAc,-0.047
same,glycan array binding signal (z-score),Gal(a1-6)Glc,-0.089
same,glycan array binding signal (z-score),Gal(b1-2)Gal,-0.09
same,glycan array binding signal (z-score),Gal(b1-3)Gal,-0.089
same,glycan array binding signal (z-score),Gal(b1-3)GalNAc,-0.094
same,glycan array binding signal (z-score),[3],-0.094
same,glycan array binding signal (z-score),[4],-0.091
same,glycan array binding signal (z-score),Gal(b1-3)GlcNAc,-0.097
same,glycan array binding signal (z-score),[5],-0.088
same,glycan array binding signal (z-score),[6],-0.078
same,glycan array binding signal (z-score),[7],-0.096
same,glycan array binding signal (z-score),[8],-0.094
same,glycan array binding signal (z-score),[9],-0.067
same,glycan array binding signal (z-score),[10],-0.086
same,glycan array binding signal (z-score),[11],-0.078
same,glycan array binding signal (z-score),Gal(b1-4)Glc,-0.084
same,glycan array binding signal (z-score),Gal(b1-4)Glc6S,-0.092
same,glycan array binding signal (z-score),Gal(b1-4)GlcNAc,-0.086
same,glycan array binding signal (z-score),[12],-0.08
same,glycan array binding signal (z-score),[13],-0.096
same,glycan array binding signal (z-score),[14],-0.097
same,glycan array binding signal (z-score),[15],-0.061
same,glycan array binding signal (z-score),[16],-0.094
same,glycan array binding signal (z-score),[17],-0.098
same,glycan array binding signal (z-score),[18],-0.096
same,glycan array binding signal (z-score),[19],-0.094
same,glycan array binding signal (z-score),Gal3S(b1-3)GalNAc,-0.099
same,glycan array binding signal (z-score),Gal3S(b1-3)GlcNAc,-0.094
same,glycan array binding signal (z-score),[20],-0.098
same,glycan array binding signal (z-score),Gal3S(b1-4)Glc,-0.096
same,glycan array binding signal (z-score),Gal3S(b1-4)Glc6S,-0.093
same,glycan array binding signal (z-score),Gal3S(b1-4)GlcNAc,-0.095
same,glycan array binding signal (z-score),Gal4S(b1-4)GlcNAc,0.116
same,glycan array binding signal (z-score),Gal6S(b1-4)Glc,-0.072
same,glycan array binding signal (z-score),Gal6S(b1-4)Glc6S,-0.076
same,glycan array binding signal (z-score),GalNAc(a1-3)Gal,-0.101
same,glycan array binding signal (z-score),GalNAc(a1-3)GalNAc,-0.092
same,glycan array binding signal (z-score),GalNAc(b1-3)GalNAc,-0.099
same,glycan array binding signal (z-score),GalNAc(b1-4)GlcNAc,-0.095
same,glycan array binding signal (z-score),Glc(a1-4)Glc,-0.076
same,glycan array binding signal (z-score),Glc(b1-4)Glc,-0.087
same,glycan array binding signal (z-score),Glc(b1-6)Glc,-0.091
same,glycan array binding signal (z-score),[21],-0.08
same,glycan array binding signal (z-score),GlcNAc(b1-3)Gal,-0.095
same,glycan array binding signal (z-score),[22],-0.088
same,glycan array binding signal (z-score),GlcNAc(b1-3)Gal(b1-4)Glc,-0.081
same,glycan array binding signal (z-score),[23],-0.094
same,glycan array binding signal (z-score),[24],-0.091
same,glycan array binding signal (z-score),[25],-0.081
same,glycan array binding signal (z-score),[26],-0.099
same,glycan array binding signal (z-score),[27],-0.085
same,glycan array binding signal (z-score),GlcNAc(b1-6)GalNAc,-0.095
